Out of some 140,000 compounds screened, about 240 (0.17%) were called active. Inconclusive means that the source gave no clear call. Such entries were picked first, then a sample of the others. Calls follow the shape of the dose curve; as a rule, active = well fitted inhibition curve with a large enough effect; inconclusive = small, poorly fitted or top-dose-only effect; inactive = no such curve, though single readings can be large or run the other way. Potencies beside an inconclusive call are fits to weak or partial responses and may not hold up.
assay: Primary qHTS assay for inhibitors of alpha-synuclein gene (SNCA) expression; settings: HEK-293 SNCA-luciferase knock-in, luminescence, 24 h; activity change, negative = inhibition: at 57.2 µM (top of the series) unless noted; also: nearly all actives have a fitted effect of over 45% in size;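 as to activity change, negative = inhibition: plate controls were DMSO cells for no effect and cell-free wells for full effect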
Potency is read from the fitted curve at half-maximal effect; tags tell the direction and shape of the fitted curve.

Row | Compound | activity change, negative = inhibition | Potency
1 | Cc1ccc(CSc2ncc(Cl)c(C(=O)Oc3ccccc3F)n2)cc1 | inactive: -5.37% | 
2 | Fc1cc(-c2cccc3ncc(-c4cnn(C5CCNCC5)c4)nc23)cc(F)c1CN1CCOCC1 |  | inconclusive: 8.57 µM [inhibitor, full curve, poor fit]
3 | Cc1cccc2c1-c1sc(C(=O)NCCCN3CCN(c4ccccc4F)CC3)cc1CO2 |  | inconclusive: 14.1 µM [inhibitor, partial curve, poor fit]
4 | Cc1ccc(Nc2ccnc(N3CCC(C(=O)NCC4CC4)CC3)n2)cc1 | inactive: -4.74% | 
5 | Cc1ccc(CNC(=O)c2ccc3c(c2)CN(CC2=Cc4ccccc4OC2)CCO3)cc1 |  | inconclusive: 25.1 µM [inhibitor, single point]
6 | COc1cccc(-c2c(C(=O)NCC(C)C)nc3sccn23)c1 | inactive: -13.4% [at 87.6 µM] | 
7 | O=C(NCCCc1ccccc1)c1cc(-c2ccsc2)c2nncn2n1 | inactive: -4.18% | 
8 | O=C(CCS(=O)(=O)c1nc(-c2ccc3c(c2)OCO3)cc(C(F)(F)F)n1)Nc1ccc(Br)cc1 |  | inconclusive: 39.8 µM [inhibitor, single point]
9 | CCc1ccc(C(=O)N2CCCN(c3nnc4ccccn34)CC2)cc1 |  | inconclusive: 0.708 µM [inhibitor, full curve, poor fit]
10 | O=C1CC(c2c(F)cccc2Cl)c2c(ccc3ccccc23)N1 (stereo not given) |  | inconclusive: 20 µM [inhibitor, single point]
11 | Cc1cc(C)nc(N2CCN(C(=O)C3CCN(CC(N)=O)CC3)CC2)n1 |  | inconclusive: 5.62 µM [inhibitor, full curve, poor fit]
12 | CCC(CC)C(=O)NC[C@@H]1C=C(C)[C@H](Cc2nc3ccc(OC)cc3[nH]2)C[C@H]1C(C)C |  | inconclusive: 50.1 µM [inhibitor, partial curve, poor fit]
13 | COc1ccc(CN2C=C(C(=O)OCc3noc(-c4ccc(C#N)cc4)n3)C(C)=NS2(=O)=O)cc1 |  | inconclusive: 39.8 µM [inhibitor, single point]
14 | CCOc1ccc(C2C(C(=O)Nc3ccccc3C)=C(C)Nc3nnnn32)cc1 (stereo not given) |  | inconclusive: 15.8 µM [inhibitor, partial curve, poor fit]
15 | COCCc1noc(CC2CCOC3(CCN(C(=O)c4ccc(OC)cc4)CC3)C2)n1 (stereo not given) | inactive: 3.48% | 
16 | CC(C)(CC(=O)O)CC(=O)N[C@H]1C[C@H]2C(=O)Nc3ccc(-c4cccs4)cc3C(=O)N2C1 | inactive: 2.75% | 
17 | COc1ccc(Cl)cc1CN(C)c1cc(C2CC(N)C2)ncn1 (stereo not given) |  | inconclusive: 3.98 µM [inhibitor, single point]
18 | COc1ccc(N2C(=O)CSC23C(=O)N(Cc2ccc(C)cc2)c2ccccc23)cc1Cl (stereo not given) |  | inconclusive: 25.1 µM [inhibitor, single point]
19 | CCOc1ccc(NC(=O)Cn2nc(Cc3ccncc3)c3ccccc3c2=O)cc1 |  | inconclusive: 2.51 µM [inhibitor, full curve, poor fit]
20 | CC(C)Cn1c(=O)c2ccccc2n2c(CCC(=O)Nc3ccc(F)cc3)nnc12 | inactive: 7.7% | 

Row | Compound | activity change, negative = inhibition | Potency
21 | O=C1CC2(CCN(C(=O)c3ccc(Cl)cc3)CC2)Oc2ccccc2N1 |  | inconclusive: 3.55 µM [inhibitor, single point]
22 | CN(C)C1CCN(C(=O)c2ccc(NC(=O)Nc3nc(N4CCOCC4)nc(N4CCOCC4)n3)cc2)CC1 |  | inconclusive: 15.2 µM [inhibitor, single point]
23 | Cc1ccc(CC(=O)N2CCCN(c3cc(-c4ccc(C)c(C)c4)[nH]n3)CC2)cc1 |  | inconclusive: 39.8 µM [inhibitor, single point]
24 | CNc1cc(C2CC(NS(=O)(=O)c3c(C)noc3C)C2)nc(N)n1 (stereo not given) | inactive: 8.7% | 
25 | CN1c2cc(C(=O)N3CCN(c4ccccc4)CC3)ccc2C(=O)N2CCCCCC21 (stereo not given) | inactive: -12% | 
26 | Cc1ccc2nc([C@H]3CCN(Cc4ccc(C(F)(F)F)cc4)C3)[nH]c2c1 |  | inconclusive: 56.2 µM [inhibitor, single point]
27 | CCN1c2cc(C(=O)Nc3cccc4c3CCCC4)ccc2C(=O)N2CCCCCC21 (stereo not given) |  | inconclusive: 10 µM [inhibitor, partial curve, poor fit]
28 | CCOC(=O)c1cc(-c2ccccc2)n(CCCC(=O)Nc2ccccc2C)c1C |  | inconclusive: 10 µM [inhibitor, partial curve, poor fit]
29 | Cc1ccc(-c2cc(C(=O)NCc3c(C)cc(C)[nH]c3=O)c3c(c2)N(C(C)C)CCO3)cc1 |  | inconclusive: 28.2 µM [inhibitor, partial curve, poor fit]
30 | Cc1ccc(N(CC(=O)N2CCN(c3cc(C)ccc3C)CC2)S(=O)(=O)c2c(C)nn(C)c2C)cc1 |  | inconclusive: 39.8 µM [inhibitor, partial curve, poor fit]
31 | Cc1ccc(-c2nccn3cc(C(=O)O)nc23)cc1 |  | inconclusive: 2.24 µM [inhibitor, full curve, poor fit]
32 | O=C(NCc1ccccc1Cl)C1CCCN1Cc1ccc(-c2cncnc2)cc1 (stereo not given) | inactive: -4.21% | 
33 | CCOc1ccc(N(C)C(=O)c2oc(=O)c3ccccc3c2-c2ccccc2)cc1 |  | inconclusive: 4.47 µM [inhibitor, full curve, poor fit]
34 | Cn1cnc2ccc(-c3ccncc3)nc2c1=O | inactive: 9.48% [at 87.6 µM] | 
35 | COC(=O)[C@@H]1Cc2c([nH]c3ccccc23)[C@H]2C[C@@H](NCCNC(C)=O)C[C@@H](c3ccc(C(C)C)cc3)N21 |  | inconclusive: 10 µM [inhibitor, single point]
36 | COc1ccc2nc(C[C@@H]3C[C@@H](C(C)C)[C@H](CN(Cc4ccccc4F)Cc4ccccc4F)C=C3C)[nH]c2c1 |  | inconclusive: 39.8 µM [inhibitor, single point]
37 | CCCS(=O)(=O)NCC(=O)N1CCCCCCNC(=O)CC1c1ccccc1 (stereo not given) | inactive: -23.9% | 
38 | CCCCOc1ccccc1C1CC(=O)Nc2ccc3ccccc3c21 (stereo not given) |  | inconclusive: 31.6 µM [inhibitor, single point]
39 | CC(C)c1ccc(S(=O)(=O)N2CCN(Cc3cccc(F)c3)CC2)cc1 |  | inconclusive: 39.8 µM [inhibitor, single point]
40 | CCn1c(=O)c2ccnn2c2ccc(C(=O)Nc3ccc(C)c(F)c3)cc21 | inactive: -17% | 

Reference: PubChem BioAssay AID1671194 (National Center for Advancing Translational Sciences (NCATS), 2021)
